Scores whose standard error is large were omitted. Two further conditions of the source, in which the scores hardly spread, are not listed. Read del as a deletion of the residues named and ins as an insertion between two positions. For part of these data: The data file names ogerin without a concentration.
B1: GPR68, Q15743 (parent)
chain: MGNITADNSSMSCTIDHTIHQTLAPVVYVTVLVVGFPANCLSLYFGYLQIKARNELGVYLCNLTVADLFYICSLPFWLQYVLQHDNWSHGDLSCQVCGILLYENIYISVGFLCCISVDRYLAVAHPFRFHQFRTLKAAVGVSVVIWAKELLTSIYFLMHEEVIEDENQHRVCFEHYPIQAWQRAINYYRFLVGFLFPICLLLASYQGILRAVRRSHGTQKSRKDQIQRLVLSTVVIFLACFLPYHVLLLVRSVWEASCDFAKGVFNAYHFSLLLTSFNCVADPVLYCFVSETTHRDLARLRGACLAFLTCSRTGRAREAYPLGAPEASGKSGAQGEEPELLTKLHPAFQTPNSPGSGGFPTGRLA

Experiments:
[1] = variants of: B1; assay: cAMP reporter score (Enrich2 score, wild type = 0); higher = more signal; HEK293T, FACS bins
[2] = variants of: B1; assay: surface expression score (Enrich2 score, wild type = 0); higher = more signal; HEK293T, FACS bins

Variant	cAMP reporter score ([1]; pH 5.5)	cAMP reporter score ([1]; pH 6)	cAMP reporter score ([1]; pH 6, modulator: ogerin)	cAMP reporter score ([1]; pH 6.5, modulator: ogerin)	surface expression score [2]
S93H	-1.09	-0.51	-0.998	-0.894	-1.6
S93I	-0.524	-0.974	-0.836	-0.456	0.177
S93K	-1.14	-0.371	-0.799	-0.771	0.489
S93N	-1.7	0.044	-0.996	-2.45	-2.05
S93P	-0.653	-0.857	-1.71	-1.41	-0.415
S93Q	-1.22	-0.918	-1.19	-1.75	0.083
S93R	-1.08	-0.498	-0.975	-0.779	0.948
S93T	-0.604	-0.059	0.487	-1.1	-0.268
S93V	0.513	-0.014	1.03	0.202	0.948
S93W	0.181	–	0.475	2.38	–
S93Y	-0.269	–	–	-0.431	–
S93_C94del	-1.63	–	-1.73	-1.46	-2.33
S93_Q95del	-0.512	-0.246	-0.447	-0.653	-0.539
S93del	-1.92	-0.855	-2.12	-1.71	-1.85
C94A	-0.766	–	–	-1.34	-0.225
C94E	-1.44	–	-3.09	-2.12	-3.19
C94F	-1.89	-1.41	-1.74	-1.67	-0.911

Variant	cAMP reporter score ([1]; pH 5.5)	cAMP reporter score ([1]; pH 6)	cAMP reporter score ([1]; pH 6, modulator: ogerin)	cAMP reporter score ([1]; pH 6.5, modulator: ogerin)	surface expression score [2]
C94G	-1.12	-0.477	-1	-1.65	–
C94H	-0.19	–	–	-0.11	-0.683
C94I	-1.88	–	-0.962	–	-0.417
C94K	-1.76	-0.456	-1.29	1.01	-0.554
C94M	-1.46	-1.46	-1.88	-1.66	-1.51
C94N	-3.38	–	-2.72	-1.28	-0.425
C94P	-0.733	-0.349	-1.97	-1.72	-1.51
C94Q	-1.75	-0.356	-1.38	-1.4	-1.13
C94R	-1.74	-1.52	-1.77	-1.37	0.203
C94S	-1.58	-0.785	–	-0.272	-1.1
C94T	-1.43	-0.612	-1.73	-1.33	-1.58
C94W	-1.1	-0.228	-1.5	-2.35	0
C94Y	-0.957	-0.675	-1.06	-0.799	-0.581
C94_Q95insG	-1.48	–	-1.37	–	-1.79
C94_V96del	-1.08	-0.589	-0.644	-0.796	–
V96_C97insG	0.039	–	-1.75	-0.365	-1.86
V96del	-0.575	-1.86	-1.99	-0.827	-2.77
